By IC50 is meant the dose at which the fit gives 50% viability; fits outside the tested doses are given as limits. The AUC spans the tested range (256-fold, ending at the top dose) of the same fit: 1 means no effect, lower means more sensitive. A top dose marked as inferred was calculated from the reported fits.
How the values were obtained:
[1] = compound: Nc1[nH]nc2nnc(-c3c(-c4ccccc4)nn4ccccc34)cc12 [FR-180204]; experiment: Viability of human cancer cell lines after 72 h of drug (GDSC screen); conditions: top dose 20 µM; top dose inferred
Protocol: (§1)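 Human cancer cell lines in 384-well plates, medium with 10% serum, drug for 72 h over a 256-fold dose range (nine 2-fold or five 4-fold steps up to the top dose). Adherent lines were fixed and stained with the nucleic acid dye Syto60, suspension lines read with resazurin; signal relative to control wells, capped at 0 and 100%. One two-parameter sigmoid per drug and line, fitted in a mixed model over all curves with the slope shared within a line.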

[2] = compound: O=C(/C=C/c1cccnc1)NCCCCC1CCN(C(=O)c2ccccc2)CC1 [FK866]; experiment: as above; conditions: top dose 1 µM; top dose inferred
Protocol: as §1

Cell Line	AUC [1]	IC50 [1] [nM]	AUC [2]	IC50 [2] [nM]
NCI-H1623 (lung adenocarcinoma, adherent)	0.969	> 20000	0.962	> 1000
NCI-H1648 (lung adenocarcinoma, adherent)	0.973	> 20000	0.956	> 1000
NCI-H1651 (lung adenocarcinoma, adherent)	0.982	> 20000	0.805	554
NCI-H1666 (lung adenocarcinoma, semi-adherent)	0.976	> 20000	0.899	> 1000
NCI-H1688 (small cell lung carcinoma, adherent)	0.903	> 20000	0.839	786
NCI-H1693 (lung adenocarcinoma, adherent)	0.888	> 20000	0.694	308
NCI-H1694 (small cell lung carcinoma, suspension)	0.983	> 20000	0.181	6.9
NCI-H1703 (lung adenocarcinoma, adherent)	0.981	> 20000	0.735	344
NCI-H1755 (lung adenocarcinoma, adherent)	0.965	> 20000	0.783	494
NCI-H1770 (non-small cell lung carcinoma, suspension)	0.946	> 20000	0.171	7.53
NCI-H1781 (lung adenocarcinoma, adherent)	0.983	> 20000	0.982	> 1000
NCI-H1792 (lung adenocarcinoma, adherent)	0.981	> 20000	0.19	8.41
NCI-H1793 (lung adenocarcinoma, adherent)	0.981	> 20000	0.914	> 1000
NCI-H1836 (small cell lung carcinoma, suspension)	0.98	> 20000	0.742	335
NCI-H1838 (lung adenocarcinoma, adherent)	0.969	> 20000	0.848	> 1000
NCI-H1869 (lung squamous cell carcinoma, adherent)	0.964	> 20000	0.681	216
NCI-H1876 (small cell lung carcinoma, adherent)	0.961	> 20000	0.042	< 3.91
NCI-H1915 (large cell lung carcinoma, adherent)	0.987	> 20000	0.406	34.3
NCI-H1944 (lung adenocarcinoma, adherent)	0.943	> 20000	0.972	> 1000
NCI-H1975 (lung adenocarcinoma, adherent)	0.967	> 20000	0.965	> 1000
NCI-H1993 (lung adenocarcinoma, adherent)	0.926	> 20000	0.918	> 1000
NCI-H2009 (lung adenocarcinoma, adherent)	0.986	> 20000	0.728	290

Cell Line	AUC [1]	IC50 [1] [nM]	AUC [2]	IC50 [2] [nM]
NCI-H2023 (lung adenocarcinoma, adherent)	0.974	> 20000	0.764	452
NCI-H2029 (small cell lung carcinoma, adherent)	0.982	> 20000	0.974	> 1000
NCI-H2030 (lung adenocarcinoma, adherent)	0.941	> 20000	0.299	15.6
NCI-H2081 (small cell lung carcinoma, suspension)	0.972	> 20000	0.24	10.6
NCI-H2085 (lung adenocarcinoma, adherent)	0.961	> 20000	0.919	> 1000
NCI-H2087 (lung adenocarcinoma, semi-adherent)	0.976	> 20000	0.958	> 1000
NCI-H2110 (non-small cell lung carcinoma, adherent)	0.875	> 20000	0.985	> 1000
NCI-H2122 (lung adenocarcinoma, adherent)	0.988	> 20000	0.732	272
NCI-H2135 (non-small cell lung carcinoma, adherent)	0.938	> 20000	0.97	> 1000
NCI-H2141 (small cell lung carcinoma, suspension)	0.989	> 20000	0.108	< 3.91
NCI-H2170 (lung squamous cell carcinoma, adherent)	0.984	> 20000	0.91	> 1000
NCI-H2172 (non-small cell lung carcinoma, adherent)	0.947	> 20000	0.918	> 1000
NCI-H2227 (small cell lung carcinoma, semi-adherent)	0.968	> 20000	0.197	6.8
NCI-H2228 (lung adenocarcinoma, adherent)	0.966	> 20000	0.887	> 1000
NCI-H2291 (lung adenocarcinoma, adherent)	0.98	> 20000	0.982	> 1000
NCI-H2342 (lung adenocarcinoma, adherent)	0.979	> 20000	0.961	> 1000
NCI-H2347 (lung adenocarcinoma, adherent)	0.98	> 20000	0.887	> 1000
NCI-H2405 (lung adenocarcinoma, adherent)	0.925	> 20000	0.41	34.5
NCI-H2444 (non-small cell lung carcinoma, adherent)	0.966	> 20000	0.973	> 1000
NCI-H2452 (mesothelioma, adherent)	0.983	> 20000	0.899	> 1000
NCI-SNU-1 (stomach, suspension)	0.96	> 20000	0.204	8.05
NCI-SNU-5 (stomach, suspension)	0.989	> 20000	0.543	82.3

Cell Line	AUC [1]	IC50 [1] [nM]	AUC [2]	IC50 [2] [nM]
NEC8 (testis, adherent)	0.986	> 20000	0.051	< 3.91
NH-12 (neuroblastoma, adherent)	0.951	> 20000	0.983	> 1000
NKM-1 (acute myeloid leukaemia, suspension)	0.911	> 20000	0.135	4.2
NMC-G1 (glioma, adherent)	0.982	> 20000	0.612	137
NOS-1 (osteosarcoma, adherent)	0.934	> 20000	0.966	> 1000
NTERA-2 cl.D1 (testis, adherent)	0.979	> 20000	0.074	< 3.91
NU-DUL-1 (B-cell lymphoma, suspension)	0.978	> 20000	0.022	< 3.91
NUGC-3 (stomach, adherent)	0.981	> 20000	0.557	91.1
NUGC-4 (stomach, adherent)	0.844	14400	0.692	216
NY (osteosarcoma, adherent)	0.989	> 20000	0.986	> 1000
OACM5-1 (oesophagus, semi-adherent)	0.931	> 20000	0.345	21.9
OACp4C (oesophagus, adherent)	0.87	> 20000	0.26	11
OAW-28 (ovary, adherent)	0.916	> 20000	0.843	> 1000
OAW-42 (ovary, adherent)	0.983	> 20000	0.677	204
OC-314 (ovary, adherent)	0.974	> 20000	0.071	< 3.91
OCI-AML2 (acute myeloid leukaemia, suspension)	0.903	14400	0.012	< 3.91
OCI-AML3 (acute myeloid leukaemia, suspension)	0.966	> 20000	0.02	< 3.91
OCI-AML5 (acute myeloid leukaemia, suspension)	0.93	> 20000	0.063	< 3.91
OCI-LY-19 (B-cell lymphoma, suspension)	0.86	14700	0.04	< 3.91
OCI-M1 (acute myeloid leukaemia, suspension)	0.969	> 20000	0.029	< 3.91
OCUB-M (breast, adherent)	0.981	> 20000	0.679	183
